Out of some 420,000 compounds screened, about 64,000 (15%) were called active. Inconclusive results, whose numbers are uncertain, are shown with a selection of clear calls. Calls follow the shape of the dose curve; as a rule, active = well fitted inhibition curve with a large enough effect; inconclusive = small, poorly fitted or top-dose-only effect; inactive = flat fitted curve, though single readings scatter. No potency is given beside an inconclusive call; the fits are too rough.
assay: qHTS for Inhibitors of human tyrosyl-DNA phosphodiesterase 1 (TDP1): qHTS in cells in absence of CPT; settings: DT40 Tdp1-/- hTDP1 cells, no CPT, ATP luminescence, 48 h; activity change, negative = growth inhibition: at 46.2 µM (top of the series) unless noted; also: nearly all actives have a fitted effect of over 55% in size
Procedure, shortened: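 Readout: luminescence from CellTiter-Glo after 30 min in the dark at RT. Cells: DT40 Tdp1-/- with stable hTDP1, 400/well. Exposure: compounds alone, ≥48 hr, 37 °C.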
% is scaled to controls: 0 for no effect and ±100 for the full control effect; potency is read from the fitted curve at half-maximal effect; tags tell the direction and shape of the fitted curve.

SMILES | activity change, negative = growth inhibition | Potency
Cc1c(F)c(N2CCNC(C)C2)cc2c1c(=O)c(C(=O)O)cn2C1CC1 (centres undefined) | inactive: 4.22% | 
CCOc1cc(C=O)ccc1OCc1cc(=O)n2cc(C)ccc2n1 |  | inconclusive [inhibitor, partial curve]
CCOc1ccc(N2CC(C(=O)Nc3ncccc3C)CC2=O)cc1 (centres undefined) | inactive: 6.41% | 
CN(C)C(CNC(=O)C1CCN(S(=O)(=O)c2ccccc2C(F)(F)F)CC1)Cc1ccccc1 (centres undefined) |  | inconclusive [inhibitor, single point]
Cc1ccc(C)c(C(=O)c2c(C)nc3sccn23)c1 |  | inconclusive [inhibitor, single point]
CC(=O)c1cccc(OCC(=O)N2CCN(c3ccc(C(F)(F)F)cn3)CC2)c1 |  | active: 14.6 µM
COc1ccc(C(C)=O)cc1CSc1nc2ccccc2o1 |  | inconclusive [inhibitor, partial curve, poor fit]
OCCOCCn1c(C2CCCN2c2nc(-c3ccc(F)cc3)cs2)nc2cc(Cl)c(Cl)cc21 (centres undefined) |  | active: 20.6 µM
COc1cc(OC)c2c(-c3ccccc3)cc(=O)oc2c1C(CCN1CCCC(C)C1)c1ccc2c(c1)OCO2 (centres undefined) |  | active: 23.1 µM
C[C@@H]1O[C@@H](O[C@H]2[C@H](Oc3cc(O)c4c(c3)O[C@H](c3ccc(O)cc3)CC4=O)O[C@H](CO)[C@@H](O)[C@@H]2O)[C@H](O)[C@H](O)[C@H]1O |  | inactive
O=C(/C=C/c1cccc([N+](=O)[O-])c1)NCCSCc1ccc(Cl)cc1Cl |  | active: 23.1 µM
O=C(Nc1c(Cl)cccc1Cl)c1cc(=O)n(Cc2ccccc2)c(=O)[nH]1 | inactive: -23.9% | 
Cc1c(C)n(C)c2ccc(C(=O)NCCCN3CCOCC3)cc12 | inactive: 14.4% | 
Cc1ccc(Cl)cc1N1CCN(Cc2cc(=O)n3ccsc3n2)CC1 |  | inconclusive [inhibitor, partial curve, poor fit]
Cn1c(=O)c2c(nc(CN3CCC(C(N)=O)CC3)n2Cc2c(F)cccc2Cl)n(C)c1=O | inactive: -0.146% | 
O=C(Cc1ccc([N+](=O)[O-])cc1)N1N=C(c2ccncc2)CC1(O)C(F)(F)F (centres undefined) |  | inconclusive [inhibitor, single point]
Cc1ccc(-c2cc(-c3n[nH]c(=S)o3)c3ccccc3n2)cc1 |  | active: 20.6 µM
CCN1CCN(c2cc(C)c3cc(NC(=O)c4ccc5c(c4)OCO5)ccc3n2)CC1 |  | active: 14.6 µM
COc1cccc(-c2ccc3ncnc(NCc4cccs4)c3c2)c1 |  | inconclusive [inhibitor, partial curve, poor fit]
CCC(CC)c1nnc(NC(=O)COc2ccc3c(c2)OCO3)s1 |  | inconclusive [inhibitor, single point]
CCC(C)OC(=O)C1C(c2ccccc2)C(C(=O)O)C1c1ccccc1 (centres undefined) | inconclusive: -25.8% [inhibitor] | 
Cc1ccc(-c2nnc(CSc3nnc(COc4cccc5ccccc45)n3-c3ccccc3)o2)cc1 |  | inconclusive [inhibitor, single point]
CCC1(c2ccc(F)cc2)NC(=O)N(CC(=O)N2CCN(S(=O)(=O)c3ccc(C)cc3C)CC2)C1=O (centres undefined) |  | inconclusive [inhibitor, single point]

SMILES | activity change, negative = growth inhibition | Potency
O=C(N/N=C/C=C/c1ccccc1[N+](=O)[O-])c1ccncc1 |  | inconclusive [inhibitor, single point]
O=S(=O)(Nc1cccc(F)c1)c1ccc(S(=O)(=O)N2CCOCC2)cc1 |  | inconclusive [inhibitor, single point]
COc1ccccc1C(=O)C1CCCN(C(=O)CCn2cnnn2)C1 (centres undefined) | inactive: 17% | 
CCOc1ccc(C(=O)N(CN2CCCC2=O)c2ccccc2)cc1 |  | inconclusive [inhibitor, partial curve, poor fit]
CCOC(=O)C1CCCN(C(=O)c2ccc(SC(F)(F)F)cc2)CC1 (centres undefined) |  | inconclusive [inhibitor, single point]
COc1ccc2nc(NC(=O)C(NS(=O)(=O)c3cccc4nsnc34)C(C)C)sc2c1 (centres undefined) |  | inconclusive [inhibitor, single point]
C=CCOc1ccccc1/C=N/NC(=O)Cc1ccc(C)cc1 |  | inconclusive [inhibitor, single point]
COc1ccc(CN2CC(=O)N(c3ccc(C)cc3C)C2=S)cc1OC |  | inconclusive [inhibitor, single point]
Cc1ccc(OCC(O)CN2CCN(c3ccc(C)cc3)CC2)cc1 (centres undefined) |  | inconclusive [inhibitor, single point]
O=C(Cn1c(SCCOc2ccc(Cl)cc2)nc2ccccc21)N1CCCCC1 |  | inconclusive [inhibitor, single point]
COc1cc(CC(=O)OCC(=O)N2CC(C)CC(C)C2)cc(OC)c1OC (centres undefined) |  | inconclusive [inhibitor, partial curve]
O=C(c1ccc(S(=O)(=O)NCc2ccco2)cc1)N1CCN(Cc2ccccc2F)CC1 |  | inconclusive [inhibitor, single point]
Cc1ccc2c(COC(=O)C34CC5CC(CC(C5)C3)C4)cc(=O)oc2c1 |  | inconclusive [inhibitor, partial curve]
O=C(COCC(=O)N/N=C/c1ccc(F)cc1)N/N=C/c1ccc(F)cc1 | inactive: -9.2% | 
CC(C)Cc1nnc(NC(=O)CCC(=O)N2CCN(c3ccccc3)CC2)s1 | inactive: -3.17% | 
O=C(CN1CCC(Cc2ccccc2)CC1)N1CCc2ccccc2C1 |  | inconclusive [inhibitor, single point]
COc1cccc(OC)c1C(=O)OCC(=O)NC1CCCCCC1 |  | inconclusive [inhibitor, single point]
COc1ccc2cc3cc(C(=O)N4CCN(c5ccccc5F)CC4)oc3nc2c1 |  | inconclusive [inhibitor, single point]
COc1ccccc1C(=O)C1CCCN(C(=O)CCc2ccccn2)C1 (centres undefined) |  | inconclusive [inhibitor, partial curve]
O=C(CN1CCCC1)NCC12CC3CC(CC(C3)C1)C2 | inactive: -18.8% | 
CCOC(=O)C1(C)Oc2ccccc2C(C(=O)OC)=C1C(=O)OC (centres undefined) |  | active: 16.4 µM
COc1cc(CNc2ccc(CNc3ncn[nH]3)cc2)ccc1OCc1ccccc1 |  | inconclusive [inhibitor, partial curve]
Cc1ccc(N(Cc2cc3ccccc3[nH]c2=O)S(=O)(=O)c2ccccc2)cc1 |  | inconclusive [inhibitor, single point]

SMILES | activity change, negative = growth inhibition | Potency
COc1ccc(N2C(=O)CC(S/C(N)=N/N=C(\C)c3cccs3)C2=O)cc1 (centres undefined) |  | inconclusive [inhibitor, single point]
CCOC(=O)C(=NCC1CCCO1)NNc1ccccc1Cl (centres undefined) | inactive: -9.79% | 
CC(C)CNS(=O)(=O)c1ccc(OCC(=O)NCC2CCCO2)c(Cl)c1 (centres undefined) | inactive: -12.9% | 
Cc1ccc(NC(=O)CSCC(=O)N2CCN(c3cccc(C(F)(F)F)c3)CC2)cc1 |  | active: 14.6 µM
Cc1ccc2nc(C)cc(C(=O)N/N=C/c3ccncc3)c2c1 |  | inconclusive [inhibitor, full curve, poor fit]
CCCOc1ccc(C2CC(=O)Nc3c2c(C)nn3-c2nncc(-c3cccc(OC)c3)n2)cc1OC (centres undefined) | inactive: -6.68% | 
CC(C)NC(=O)CN(C(=O)CCC(=O)Nc1ccccn1)c1ccc(F)c(Cl)c1 |  | inconclusive [inhibitor, full curve]
CCN(c1ccccc1)S(=O)(=O)c1ccc(Cl)c(NC(=O)Nc2ccc(Cl)cc2C#N)c1 |  | active: 16.4 µM
CS(=O)(=O)Nc1cccc(C2=NN(C(=O)c3ccccc3)C(c3cccs3)C2)c1 (centres undefined) |  | inconclusive [inhibitor, single point]
CCC(=O)Oc1ccc(C(=O)Nc2ccc([N+](=O)[O-])cc2)cc1 |  | inconclusive [inhibitor, single point]
Cc1cccc(C(=O)C(O)(c2ccccc2)C2CCCCC2=O)c1 (centres undefined) |  | inconclusive [inhibitor, partial curve, poor fit]
COc1cccc(C2C(C#N)=C(N)OC(C(C)(C)C)=C2C#N)c1 (centres undefined) |  | inconclusive [inhibitor, partial curve, poor fit]
O=C(CSc1oc(-c2ccc(F)cc2)nc1S(=O)(=O)c1ccc(F)cc1)NCC1CCCO1 (centres undefined) |  | inconclusive [inhibitor, partial curve, poor fit]
C=CCc1cccc(CNc2cnc3ccccc3c2)c1O |  | active: 10.3 µM
O=C(NCCN1CCN(C(=O)C(c2ccccc2)c2ccccc2)CC1)C(=O)Nc1ccccc1 | inactive: -29% | 
Cc1c2cnccc2c(C)c2c1c1ccccc1n2CCOC(=O)c1ccccc1 |  | active: 11.2 µM
CCCCNC(=O)C[C@@H]1C[C@@]2(C(=O)OC)CCCCC=C2N(Cc2cccc3ccccc23)C1=O |  | inconclusive [inhibitor, single point]
Cn1cc(C2=C(c3cn(CCCSC(=N)N)c4ccccc34)C(=O)NC2=O)c2ccccc21 |  | active: 0.708 µM
COc1cccc(OC)c1C(=O)Nc1nc2c(s1)CCc1ccccc1-2 | inactive: -14.6% | 
Cc1ccc(NC(=O)Nc2sc3nc4n(c(=O)c3c2C)CCC(C)CC4)c(Cl)c1 (centres undefined) |  | active: 11.6 µM
Cc1cccc(NC(=O)c2ccc3c(c2)CCN3S(=O)(=O)c2ccccc2)c1C | inactive: -27.9% | 
CSc1ncccc1C(=O)N1CCOc2ccc(C(C)(O)CCn3cccn3)cc2C1 (centres undefined) | inactive: -1.53% | 
Cc1cc(C)nc(N2CCC(C(=O)Nc3ccc4c(c3)OCCO4)CC2)n1 |  | inconclusive [inhibitor, partial curve]
